Results on 89 molecules are retold here after article PMC4336329 (PLoS ONE, 2015).

The whole screen tested about 310,000 compounds, of which about 2,200 (0.71%) showed an effect of 50% or more. The effect is printed as a negative number. Some of the results follow.

Sequence of human ether-à-go-go-related gene (hERG) potassium channel (Q12809 whole entry, looked up): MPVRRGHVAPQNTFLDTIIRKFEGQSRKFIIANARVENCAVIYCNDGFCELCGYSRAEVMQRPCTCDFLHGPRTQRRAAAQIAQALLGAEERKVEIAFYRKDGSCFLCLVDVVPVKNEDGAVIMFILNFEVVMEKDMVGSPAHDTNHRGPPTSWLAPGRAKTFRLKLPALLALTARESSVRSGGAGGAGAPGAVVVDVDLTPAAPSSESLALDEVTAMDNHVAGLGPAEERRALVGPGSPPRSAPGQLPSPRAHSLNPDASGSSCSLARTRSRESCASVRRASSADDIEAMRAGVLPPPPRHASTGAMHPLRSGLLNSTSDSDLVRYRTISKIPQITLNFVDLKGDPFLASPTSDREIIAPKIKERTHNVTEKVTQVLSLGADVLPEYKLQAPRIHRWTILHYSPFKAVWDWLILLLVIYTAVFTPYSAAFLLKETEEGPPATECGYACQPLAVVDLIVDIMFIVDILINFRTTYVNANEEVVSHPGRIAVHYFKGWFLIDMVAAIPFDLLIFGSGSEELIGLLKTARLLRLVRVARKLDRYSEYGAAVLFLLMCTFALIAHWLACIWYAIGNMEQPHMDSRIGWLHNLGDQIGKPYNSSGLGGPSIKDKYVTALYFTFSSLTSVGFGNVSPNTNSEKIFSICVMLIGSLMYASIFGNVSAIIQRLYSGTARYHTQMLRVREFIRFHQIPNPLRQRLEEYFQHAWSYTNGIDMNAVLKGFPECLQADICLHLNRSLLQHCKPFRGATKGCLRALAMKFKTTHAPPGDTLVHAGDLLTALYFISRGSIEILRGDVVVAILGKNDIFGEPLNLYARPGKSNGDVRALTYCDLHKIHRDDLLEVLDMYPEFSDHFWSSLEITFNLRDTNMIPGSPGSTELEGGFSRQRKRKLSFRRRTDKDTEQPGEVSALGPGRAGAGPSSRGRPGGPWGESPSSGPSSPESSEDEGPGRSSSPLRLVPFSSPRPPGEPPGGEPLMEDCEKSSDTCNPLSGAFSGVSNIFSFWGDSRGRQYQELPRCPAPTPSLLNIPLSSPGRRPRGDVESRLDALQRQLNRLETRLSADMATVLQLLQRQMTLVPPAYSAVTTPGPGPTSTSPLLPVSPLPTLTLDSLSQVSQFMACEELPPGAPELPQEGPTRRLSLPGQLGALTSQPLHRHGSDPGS

This assay has as its target human ether-à-go-go-related gene (hERG) potassium channel (human, UniProt Q12809). Nature of the assay: primary screen, population patch clamp on CHO cells stably expressing hERG.
For the molecule `Cc1cc(C(=O)NNc2ccc(C)c(C)c2)no1`, the “hERG current change (%, negative = inhibition) at 1uM” value came to 14.6%.

Consider `CC1CN(Cc2nc3c(c(=O)[nH]c(=O)n3C)n2CCN2CCOCC2)CC(C)O1` (centres unmarked), for which the “hERG current change (%, negative = inhibition) at 1uM” value turned out to be 11.8%. Regarding `CN(C)S(=O)(=O)c1cccc(NC(=O)COC(=O)C2CCN(C(=O)c3ccc(F)cc3)CC2)c1`, the “hERG current change (%, negative = inhibition) at 1uM” value was -9.92%.

For the molecule `O=C(CCCN1C(=O)/C(=C/c2ccccc2Cl)SC1=S)NNC(=O)c1ccc(Cl)cc1`, the “hERG current change (%, negative = inhibition) at 1uM” value came to 4.67%.

With `COc1ccc(C(C(=O)NC2CCCCC2)N(C(=O)CCl)c2ccc(OC)cc2)cc1` (centres unmarked), the “hERG current change (%, negative = inhibition) at 1uM” value was -4.47%. The figure for `CCOc1ccc(NC(=O)C2CCCN(S(=O)(=O)c3cnc[nH]3)C2)cc1` (centres unmarked) is 2.15%; for `CN(C)CCNC(=O)c1c(O)c2c([nH]c1=O)CCCC2` it is 12.4%; for `CC(C)(C)c1csc(N(CCC#N)CCC#N)n1` it is 3.19%. Under `CCC(C)(C)n1nnnc1C(c1cccnc1)N1CCC(Cc2ccccc2)CC1` (centres unmarked) stands -2.9%.

As for `O=C(Cc1ccc(Br)cc1)N1CCN(c2ccccc2)CC1`, the “hERG current change (%, negative = inhibition) at 1uM” value worked out at 9.2%. The figure for `CC(=O)Nc1ccc(NC(=O)c2c(C)c(-c3ccccc3)nc3ccccc23)cc1` is 12.2%; for `COCCCn1ccc(O)c(Cc2ccc(F)cc2)c1=O` it is -0.754%; for `CCc1ccc(-c2cc(C)no2)cc1S(=O)(=O)NC(C)Cc1ccco1` (centres unmarked) it is 10.7%. Take `Cc1nc2sc(C(c3cccc(F)c3)N3CCOCC3)c(O)n2n1` (centres unmarked): the “hERG current change (%, negative = inhibition) at 1uM” value was found to be 13.2%. Under `COC(=O)c1sc(-c2ccccc2)cc1NC(=O)C1CC1` stands 8.56%; under `Cc1ccc2nc(-c3ccc(NC(=O)COC(=O)c4ccc([N+](=O)[O-])o4)cc3)sc2c1`, 5.48%; under `CC(=O)c1ccc(Nc2nc3ccccc3nc2NS(=O)(=O)c2cccs2)cc1`, 10.1%.

On to `CCOc1ccc(N(CC)S(=O)(=O)c2ccc3c(c2)n(C)c(=O)c(=O)n3C)cc1`, for which the “hERG current change (%, negative = inhibition) at 1uM” value is recorded as -4.68%. Under `CC(=O)Nc1ccc(C(c2c(O)c3ccccc3oc2=O)c2c(C)n(C)n(-c3ccccc3)c2=O)cc1` (centres unmarked) stands 8.13%. Under `CCC1(c2ccccc2)NC(=O)N(CC(=O)Nc2ccc(S(=O)(=O)Nc3ncccn3)cc2)C1=O` (centres unmarked) stands 4.41%; under `CCn1cnc2c1c(=O)n(CC(=O)NN)c(=O)n2Cc1ccccc1`, 15.9%; under `CN(C)CCNC(=O)c1sc2nc(-c3ccccc3)cc(C(F)(F)F)c2c1N`, -2.34%. The figure for `CC(=O)Nc1ccc(NC(=O)C/C(C)=N/NC(=O)C(=O)Nc2ccc(C)c(Cl)c2)cc1` is 10.8%; for `CCC(=O)Nc1ccc(C(=O)Nc2ccc3c(c2)C(=O)N(CC2CCCO2)C3=O)cc1` (centres unmarked) it is 16.2%; for `O=C(c1ccco1)N1CCC(n2nnc3ccccc32)CC1` it is -0.447%. As for `Fc1ccc(C(Nc2ccccn2)c2c[nH]c3ccccc23)cc1` (centres unmarked), the “hERG current change (%, negative = inhibition) at 1uM” value was 4.2%.

As for `Cn1c(Cl)c(/C=N/OC(=O)c2cccc(Cl)c2)c2ccccc21`, the “hERG current change (%, negative = inhibition) at 1uM” value is recorded as 5.17%. Under `CCOc1ccc(N=C2C(=O)N(CN3CCOCC3)c3ccccc32)cc1` stands -1.4%; under `Cc1ccc(NC(=S)Nc2ccc(OC(F)F)c(Cl)c2)cc1F`, 2.35%; under `Cc1ccccc1CSCC(=O)Nc1ccccc1-c1ccccc1`, 10.2%. Under `Cc1cccc(NC(=O)CC2Nc3cccc4cccc(c34)NC2=O)c1` (centres unmarked) stands -1.11%. The figure for `CC(=O)/C=C(\C)NCCNc1c(F)c(F)c(CO)c(F)c1F` is 6.94%; for `COc1ccc(CCN=CC2=C(O)CCCC2=O)cc1OC` it is 8.07%; for `CN(CCCNC(=O)Cn1cccc1C(=O)c1ccccc1)C1CCCCC1` it is -7.02%.

Consider `Cl.c1ccc(OCC2CCNCC2)nc1`, for which the “hERG current change (%, negative = inhibition) at 1uM” value worked out at 11.4%. Under `Cc1nc2ccccc2c(=O)n1NC(=O)c1c(O)c2c(n(CC(C)C)c1=O)CCCC2` stands -0.429%. Under `CCOC(=O)C1(Cc2ccccc2C)CCCN(C(=O)COC)C1` (centres unmarked) stands 14.8%; under `O=C(CNc1ccccc1)N/N=C/c1ccc([N+](=O)[O-])cc1`, 13.7%. Under `COc1ccc(CNc2oc(-c3cccc4ccccc34)nc2P(=O)(OC)OC)cc1` stands 12%; under `CC(=O)c1cccc(Nc2c3c(nc4ccccc24)CCC3)c1.Cl`, -13.7%. Take `Cn1c(=O)c2c(nc(SCCN3CCOCC3)n2C)n(C)c1=O`: the “hERG current change (%, negative = inhibition) at 1uM” value is 20.1%. The figure for `Cc1ccc(C(C)C)c(OCC(=O)Nc2ccc3c(c2)nc(CN2CCCC2)n3C)c1` is -16.8%. Under `Cc1c(NC(=O)C2CC=CCC2C(=O)O)c(=O)n(-c2ccccc2)n1C` (centres unmarked) stands -5.81%. Under `O=C(Nc1nc2ccc(F)cc2s1)C1CCN(S(=O)(=O)c2cc([N+](=O)[O-])ccc2Cl)CC1` stands 13.7%. As for `CCC1CCCCN1c1cc(C)nc2cc(-c3cccc(C)c3)nn12` (centres unmarked), the “hERG current change (%, negative = inhibition) at 1uM” value was found to be 2.95%. Under `Cc1c(C(=O)Nc2ccncc2)sc2nc(-c3ccccc3)cn12` stands -0.0661%; under `CCCCCn1c(SCC(=O)OC)nc2c1c(=O)[nH]c(=O)n2C`, -35.3%. Under `Cc1ccc(COCCN2CCN(S(=O)(=O)c3ccc(C)cc3)CCC2=O)cc1` stands 9.86%; under `O=C(CNC(=O)c1ccccc1F)OCc1nc2ccccc2s1`, 10.9%; under `Cc1onc(-c2c(Cl)cccc2Cl)c1C(=O)Nn1cnnc1`, 13.1%. The figure for `COc1ccccc1Cc1noc(COc2cccc(C)c2C)n1` is 8.14%; for `Cc1nnsc1NC(=O)OCCCl` it is 2.59%; for `CN(Cc1nc2c(s1)CCCC2)C(=O)CCc1nnc(-c2ccccc2)o1` it is 3.84%. Take `CCOc1ccccc1NC(=O)CN1C(=O)C(C)SC(C)C1=O` (centres unmarked): the “hERG current change (%, negative = inhibition) at 1uM” value was 10.7%. `C=CCC1NS(=O)(=O)OC2CCCC12` (centres unmarked): the “hERG current change (%, negative = inhibition) at 1uM” value amounted to 11.2%. Under `Cc1cc(/C=C2\SC(=S)N(C)C2=O)c(C)n1-c1ccccc1O` stands 8.22%. Take `CCCCCCCC(=O)Oc1ccc(C(=O)Nc2cc(C)on2)cc1`: the “hERG current change (%, negative = inhibition) at 1uM” value was determined as 14.4%. Under `CC1CC(=O)c2cnc(N)nc2C1` (centres unmarked) stands -5.65%; under `CC(C)Nc1cc(N2CCCC2)ccc1[N+](=O)[O-]`, 5.36%; under `CC(=O)N1CCCc2cc(S(=O)(=O)N3CCN(c4ccccn4)CC3)ccc21`, 3.81%. The figure for `O=C(NCc1ccc2c(c1)OCO2)C1CCCN(S(=O)(=O)c2cccnc2)C1` (centres unmarked) is 16.5%. The figure for `N#CCC(=O)NNC(=S)NC(=O)C(c1ccccc1)c1ccccc1` is 7.95%; for `CN(C)/N=C/c1ccc(/C=N/NC(N)=S)o1` it is 13.2%.

As for `CCOc1ccc(N(CC(=O)NCC2CCCO2)S(=O)(=O)c2ccc(C)cc2)cc1` (centres unmarked), the “hERG current change (%, negative = inhibition) at 1uM” value stood at 6.46%.

As for `CCN1CCN(Cc2ccccc2C)CC1`, the “hERG current change (%, negative = inhibition) at 1uM” value came out at 10.5%. The figure for `Cc1cccc(C(=O)OCC(=O)NC(C)CCc2ccccc2)c1` (centres unmarked) is 9.19%; for `CC(/C=N/NC(=O)c1cccnc1)=C\c1ccco1` it is 15.7%; for `CC(C)N1C(=O)C2ON(c3ccccc3)C(c3cccs3)C2C1=O` (centres unmarked) it is 8.77%.

As for `CC(C)C(=O)NC(c1ccc(N(C)C)cc1)c1c(O)ccc2ccccc12` (centres unmarked), the “hERG current change (%, negative = inhibition) at 1uM” value was found to be 9.96%. The figure for `COc1ccccc1/C(O)=C(\C#N)c1nc2ccccc2[nH]1` is 12.5%; for `O=C(NC1=NCCS1)c1ccc2c(c1)C(=O)N(Cc1ccco1)C2=O` it is -7.22%; for `Br.CC(C)Cc1ccc(C2=CSC3=NCCN23)cc1` it is -60.9%. For the molecule `O=C(CN1C(=O)c2ccccc2S1(=O)=O)NCCC1=CCCCC1`, the “hERG current change (%, negative = inhibition) at 1uM” value is 7.27%. Under `Cc1ccc(S(=O)(=O)N(C)c2cc(S(=O)(=O)N3CCOCC3)c(C)cc2C)cc1` stands 6.94%.

As for `Cc1nonc1CN(C)C(=O)c1cc(COc2ccc(F)cc2Cl)on1`, the “hERG current change (%, negative = inhibition) at 1uM” value was determined as 15.6%.

As for `O=C(Cc1ccccc1F)N1CCN(S(=O)(=O)c2ccc(Cl)cc2)CC1`, the “hERG current change (%, negative = inhibition) at 1uM” value is listed as 20.7%. On to `O=C(C1CCN(C2CCN(Cc3ccsc3)CC2)CC1)N1CCOCC1`, for which the “hERG current change (%, negative = inhibition) at 1uM” value is 12.6%. The figure for `COc1ccc(S(=O)(=O)Nc2noc3ccccc23)cc1OC` is 14.5%. Under `COc1cc(C)c(C(C)C)cc1S(=O)(=O)N1CCOCC1` stands -1.94%; under `C=CCNC(=O)c1ccc2c(c1)S(=O)(=O)c1ccccc1C2=O`, -9.65%. Under `O=C(CSc1nnc(-c2cccnc2)n1Cc1ccco1)c1ccccc1` stands -0.151%; under `Cc1ccc2c(c1)C(c1ccccc1)N(C(=O)c1ccc(F)cc1)CC(=O)N2` (centres unmarked), 13.6%; under `COc1ccc(C(=O)C(OC(=O)CNC(=O)c2ccco2)c2ccccc2)cc1` (centres unmarked), 6.88%. For `CCCN(CCC)C(=O)Cn1c(=O)c2ccccc2n2c(=S)sc(-c3ccccc3C)c12`, the “hERG current change (%, negative = inhibition) at 1uM” value turned out to be 11.6%.

Regarding `CC(=O)c1ccn(S(=O)(=O)c2ccccc2)c1`, the “hERG current change (%, negative = inhibition) at 1uM” value is on record as 4.95%. Under `COc1ccc(NC(=O)C/C(C)=N/NC(=O)C(=O)NC(C)C)c(OC)c1` stands 5.74%; under `Cc1cc2oc(=O)c(CC(=O)NCCCO)c(C)c2c2occ(C(C)(C)C)c12`, 12.2%.

As to `CCOC(=O)c1c(NC(=O)COC(=O)c2nc(Cl)ccc2Cl)sc2c1CCC2`, the “hERG current change (%, negative = inhibition) at 1uM” value amounted to 8.79%. Under `CN(C(=O)CCNC(=O)Cn1cnc2ccccc2c1=O)c1ccc(F)cc1` stands 12.8%.
